# Data: PubChem BioAssay AID624417 (National Center for Advancing Translational Sciences (NCATS), 2012)
# About 6,400 (1.6%) of roughly 410,000 compounds were called active. Inconclusive means that the source gave no clear call. Such entries were picked first, then a sample of the others. Calls follow the shape of the dose curve; as a rule, active = well fitted inhibition curve with a large enough effect; inconclusive = small, poorly fitted or top-dose-only effect; inactive = no such curve, though single readings can be large or run the other way. No potency is given beside an inconclusive call; the fits are too rough.
# Molecular target: Glucagon-like peptide 1 receptor (Homo sapiens) (UniProt P43220)
# Chain of UniProt P43220 (P43220 whole entry, looked up): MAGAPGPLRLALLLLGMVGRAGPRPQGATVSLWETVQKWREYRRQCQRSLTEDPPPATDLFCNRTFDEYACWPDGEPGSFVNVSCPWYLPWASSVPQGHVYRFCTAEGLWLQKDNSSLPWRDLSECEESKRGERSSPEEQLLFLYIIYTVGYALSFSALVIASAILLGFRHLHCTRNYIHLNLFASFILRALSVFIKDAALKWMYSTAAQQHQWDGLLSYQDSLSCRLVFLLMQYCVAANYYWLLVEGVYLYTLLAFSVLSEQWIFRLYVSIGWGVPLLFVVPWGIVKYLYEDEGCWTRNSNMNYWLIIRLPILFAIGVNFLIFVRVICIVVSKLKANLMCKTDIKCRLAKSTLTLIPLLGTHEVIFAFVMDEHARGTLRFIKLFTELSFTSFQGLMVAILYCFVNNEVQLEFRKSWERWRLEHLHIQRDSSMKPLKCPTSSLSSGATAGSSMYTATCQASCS
# Assay: qHTS of GLP-1 Receptor Inverse Agonists (Inhibition Mode); also: nearly all actives have a fitted effect of over 55% in size
# Conditions: HEK293 GLP-1R CRE-luciferase, luminescence, 24 h, GLP-1R form is constitutively active; series mostly up to 38.3 µM
# Summary of the method: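 Constitutively active GLP-1R drives a cAMP-responsive luciferase in stably transfected HEK293 cells; test compounds are added after overnight (12 h) attachment and left 24 hr, and signal loss in luminescence marks inhibition.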
# Potency is read from the fitted curve at half-maximal effect; tags tell the direction and shape of the fitted curve.
row,Compound,Potency
1,Cc1ccc(C(=O)Nc2cccc(C(=O)NC3CCCCC3)c2)cc1,"inconclusive [inhibitor, full curve, poor fit]"
2,COc1cccc(OCc2nnc(SCC(=O)N3c4ccccc4Sc4ccc(Cl)cc43)o2)c1,"inconclusive [inhibitor, full curve]"
3,COc1ccccc1NC(=O)c1ccc(S(=O)(=O)N(C)c2ccccc2OC)cc1,"inconclusive [inhibitor, single point]"
4,COc1ccccc1N1CN(CCc2ccccc2)CNC1=S,inactive
5,COc1ccc([N+](=O)[O-])cc1/C=N/NC(=O)/C(=C\c1cccs1)NC(=O)c1ccccc1,"inconclusive [inhibitor, single point]"
6,CCc1ccc(NC(=O)CCS(=O)(=O)c2cccc3nsnc23)cc1,"inconclusive [inhibitor, partial curve, poor fit]"
7,O=C1CCCC2=C1C1c3ccccc3C(=O)N1c1ccc(C(=O)c3ccccc3)cc1N2 (centres undefined),"inconclusive [inhibitor, partial curve, poor fit]"
8,Cc1ccc(C(=O)Nc2sc3c(c2C(=O)O)CCC(C)C3)o1 (centres undefined),"inconclusive [inhibitor, full curve, poor fit]"
9,Cc1c(O)c2c(=O)n(-c3ccccc3)c(-c3ccccc3)cc2oc1=O,inactive
10,Cc1ccc(SC(=O)c2c([N+](=O)[O-])c(C)nn2C)cc1,"inconclusive [inhibitor, single point]"
11,Cc1ccccc1CSCC(=O)N/N=C/c1cccs1,"inconclusive [inhibitor, partial curve, poor fit]"
12,CCc1ccc(-n2c(=O)c3cccnc3n2CC(=O)Nc2cc(F)ccc2F)cc1,inactive
13,CS(=O)(=O)N(Cc1ccco1)CC(O)Cn1c2ccccc2c2ccccc21 (centres undefined),"inconclusive [inhibitor, full curve, poor fit]"
14,CCOC(=O)CNC(=O)CSc1nnc(NC(=O)c2ccc3c(c2)OCO3)s1,inactive
15,CCC1(C)Cc2ccccc2-c2nc3n(c(=O)c21)CC(C(=O)O)S3 (centres undefined),inactive
16,CC1=C(C)C(c2ccccc2)NC(=S)N1 (centres undefined),"inconclusive [inhibitor, single point]"
17,Cc1ccc(O)c(-c2cc(C(F)(F)C(F)F)[nH]n2)c1,"inconclusive [inhibitor, partial curve, poor fit]"
18,Cc1c(Br)cccc1NC(=O)C1(C)CCN1CCc1ccccc1 (centres undefined),"inconclusive [inhibitor, single point]"
19,Cn1c(-c2ccc(F)cc2)cnc1NCc1cc2c(cc1[N+](=O)[O-])OCO2,"inconclusive [inhibitor, partial curve, poor fit]"
20,Cc1nc2ccccc2c(-c2ccccc2)c1C(=O)c1ccccc1,"inconclusive [inhibitor, single point]"
21,CC(C1CC2CCC1C2)n1c(-c2ccco2)n[nH]c1=S (centres undefined),"inconclusive [inhibitor, partial curve, poor fit]"
22,CCc1ccc(NC(=S)N(CCN2CCCCC2)Cc2ccco2)cc1,"inconclusive [inhibitor, partial curve, poor fit]"

row,Compound,Potency
1,O=C(NCCc1c[nH]c2ccccc12)c1cccc(S(=O)(=O)Nc2ccccc2Cl)c1,"inconclusive [inhibitor, single point]"
2,O=C(CSc1nnc(-c2ccccc2)o1)N1CCCC1,inactive
3,COc1ccc(-c2n[nH]c(C)c2-c2ccccc2OC)c(O)c1,"inconclusive [inhibitor, partial curve, poor fit]"
4,COC(=O)c1sc(NC(=O)c2cc(-c3ccccc3)nc3ccccc23)c(C#N)c1C,"inconclusive [inhibitor, full curve]"
5,Cc1ccc(N2C(=O)CC(Cc3cc(C)cc(C)c3)C2=O)cc1 (centres undefined),"inconclusive [inhibitor, single point]"
6,COc1ccc(F)c(-c2nc(CN3CCC(c4ccccc4)CC3)c(C)o2)c1,"inconclusive [inhibitor, partial curve, poor fit]"
7,CCOC(=O)c1ccc(NC(=S)NCCCN2CCN(C3CCCCC3)CC2)cc1,"inconclusive [inhibitor, single point]"
8,O=C(CN1CCN(c2ccccn2)CC1)Nc1ccc(Br)cc1,"inconclusive [inhibitor, single point]"
9,CCc1sc(Nc2cccc(C)c2C)nc1-c1cc2cccc(OC)c2oc1=O,inactive
10,C=CCc1cccc(/C=N/NC(=O)c2ccccc2Br)c1O,"inconclusive [inhibitor, full curve, poor fit]"
11,O=C1C2C3C=CC(C4CC34)C2C(=O)N1CCCCN1CCN(c2ccc(F)cc2)CC1 (centres undefined),"inconclusive [inhibitor, partial curve, poor fit]"
12,CCOC(=O)c1sc(Nc2nc3ccc(OC)cc3s2)cc1C,"inconclusive [inhibitor, single point]"
13,CN(Cc1ccc(F)cc1)C(=O)COc1ccccc1-c1ccccc1,"inconclusive [inhibitor, partial curve, poor fit]"
14,Cc1nc(-c2cccnc2)sc1CCNS(=O)(=O)c1ccc(F)cc1,inactive
15,CC(C)C[C@H](NC(=O)c1[nH]cnc1C(=O)N[C@@H](C)c1ccccc1)C(=O)OCc1ccccc1,active: 4.47 µM
16,Cc1cc(S(=O)(=O)Nc2ccc(-c3ccc(N4CCCCCC4)nn3)cc2)c(C)cc1Cl,active: 7.94 µM
17,CCOc1ccc(NC(=O)C2CCN(c3nnc(-n4c(C)ccc4C)s3)CC2)cc1,inactive
18,COc1ccc(-n2c(/C=C3\C(=O)N(C)c4ccccc43)nc3ccccc3c2=O)cc1,"inconclusive [inhibitor, full curve, poor fit]"
19,Nc1ccccc1C=C1Cc2ccccc2C1=O,"inconclusive [inhibitor, single point]"
20,Cc1cc(C(=O)O[C@H]2[C@H](Cc3ccccc3)NS(=O)(=O)[C@H]3C[C@@H]4C=C[C@]23O4)ccc1[N+](=O)[O-],"inconclusive [inhibitor, single point]"
21,CN1CCN(S(=O)(=O)c2ccc(N3CCc4ccccc4C3)nc2)CC1,"inconclusive [inhibitor, partial curve, poor fit]"
22,Cc1ccc(NC(=O)O/N=C/c2c(C)nn(C(C)(C)C)c2C)cc1Cl,"inconclusive [inhibitor, full curve, poor fit]"

row,Compound,Potency
1,CC(C)NC(=O)C1(C)CSCC(=O)N1C1CCN(Cc2ccccc2)CC1 (centres undefined),inactive
2,CCc1ccccc1Nc1cc(C(=O)NC(C)c2ccccc2)c2ccccc2n1 (centres undefined),"inconclusive [inhibitor, single point]"
3,COc1cc(C2c3c(-c4cc(C)ccc4O)n[nH]c3C(=O)N2CCCO)ccc1OCCC(C)C (centres undefined),"inconclusive [inhibitor, single point]"
4,CCCC(=O)Nc1ccc(-c2nc3ncccc3o2)cc1C,inactive
5,O=C1C(=NO)C(c2ccccc2)Oc2ccccc21 (centres undefined),"inconclusive [inhibitor, single point]"
6,CCOC(=O)c1cccc(NC(=O)CCn2nc(C)c(S(=O)(=O)N3CCCCC3)c2C)c1,"inconclusive [inhibitor, single point]"
7,COc1ccc(C2CC(O)(c3ccccc3)Oc3cc(OC)ccc32)cc1 (centres undefined),"inconclusive [inhibitor, partial curve, poor fit]"
8,CCOc1ccc(NC(=O)CN2CCCN(Cc3cc(C)ccc3C)S2(=O)=O)cc1,"inconclusive [inhibitor, partial curve, poor fit]"
9,CC(C)c1ccc(CNc2ccc(N3CCOCC3)cc2)cc1,"inconclusive [inhibitor, single point]"
10,CCc1ccc2nc(NC(=O)CCCc3cccs3)sc2c1,"inconclusive [inhibitor, partial curve, poor fit]"
11,CCOc1ccccc1N1CCN(Cc2ccc(OC)c(OC)c2OC)CC1,inactive
12,Cc1ccc(C)c(Nc2ncccc2C(=O)NCc2cccs2)c1,"inconclusive [inhibitor, single point]"
13,NC(=O)c1ccsc1NC(=O)c1ccc2c(c1)CCCC2,"inconclusive [inhibitor, partial curve]"
14,O=C1c2ccccc2C(=O)N1CCc1c(-c2ccccc2)[nH]c2ccccc12,"inconclusive [inhibitor, single point]"
15,O=C(NCc1ccccc1)C(c1cc2ccccc2o1)n1c(=O)c(-c2cc3ccccc3[nH]2)nc2ccccc21 (centres undefined),"inconclusive [inhibitor, partial curve, poor fit]"
16,Cc1onc(-c2c(F)cccc2Cl)c1C(=O)OCC(=O)N1C(C)CCCC1C (centres undefined),"inconclusive [inhibitor, partial curve, poor fit]"
17,O=C(Nc1cc(F)ccc1F)N1CCC(CN2CCCC2)CC1,inactive
18,COc1ccc(C2(c3ccc(OC)cc3)NC(=O)N(CC(=O)NCC(C)c3ccccc3)C2=O)cc1 (centres undefined),"inconclusive [inhibitor, partial curve, poor fit]"
19,COc1ccc(-n2nnnc2S(=O)(=O)CC(=O)N2CCCCC2)cc1,"inconclusive [inhibitor, single point]"
20,COC(=O)c1cccc2c(C(=O)O)cc(-c3ccccc3)nc12,inactive
